# In PubChem BioAssay (Tox21):
# Where “and” joins values, the source holds several entries; their conditions need not be identical. Equal entries are not always repeated. This list was built around the results that the source calls inconclusive (neither active nor inactive); the mix of calls is not that of the screen. For some of these results: Where the call is inconclusive, the potency comes from a doubtful curve fit. Calls of active or inactive are those of the source. Unless noted, calls follow the shape of the dose curve; as a rule, active = well fitted curve in the direction sought with a large enough effect in the repeat runs; inconclusive = weak or mixed curves; inactive = no such curve, though single readings can be large; an effect the other way counts as inactive or inconclusive.
# Assays:
# [1] = qHTS assay to identify small molecule antagonists of the estrogen related receptor (ERR) signaling pathway from Tox21 library - cell viability counter screen (AID 1224834); conditions: ERR reporter cells viability, CellTiter-Fluor, 17.5 h; series mostly up to 92.4 µM; also: nearly all actives have a fitted effect of over 30% in size; also: potency is read from the fitted curve at half-maximal effect
# Summary of the method: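 Compounds in DMSO were pinned onto ERR cells that had been incubated for 6 h, and the plates were held at 37 C for 17.5 h. CellTiter-Fluor reagent was then added and fluorescence was measured after 30 min.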
# [2] = qHTS assay to identify small molecule agonists of the constitutive androstane receptor (CAR) signaling pathway - cell viability counter screen (AID 1224836); conditions: HepG2-CYP2B6-hCAR viability, CellTiter-Fluor, 23 h, PK11195 added to every well; series mostly up to 92.4 µM; also: potency is read from the fitted curve at half-maximal effect; nearly all actives have a fitted effect of over 45% in size
# Summary of the method: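 Viability read-out: CellTiter-Fluor fluorescence after 23 h compound exposure at 37 C/5% CO2 in double-stable HepG2-CYP2B6-hCAR cells, with PK11195 present at 0.75 uM final; compounds tested in 15-point titration.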
# [3] = qHTS assay to identify small molecule antagonists of the estrogen related receptor signaling pathway with the pleiotropic PPARgamma coactivator (PGC) from Tox21 10K library - cell viability counter screen (AID 1224840; active = well fitted cell-killing curve with a large enough effect in the repeat runs, not every such curve was filed as active; inconclusive = weak or mixed curves, or effect the other way; inactive = no such curve, though single readings can be large or run the other way; also: nearly all actives have a fitted effect of over 40% in size; also: potency is read from the fitted curve at half-maximal effect); conditions: PGC/ERR reporter cells viability, CellTiter-Fluor, 17.5 h; series mostly up to 92.4 µM
# Summary of the method: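 Cell viability is measured by CellTiter-Fluor fluorescence in PGC/ERR cells that receive compounds after a 6-hour attachment period and are then incubated 17.5 hours at 37 C.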
# [4] = qHTS assay to identify small molecule agonists of the estrogen related receptor signaling pathway with the pleiotropic PPARgamma coactivator (PGC) from Tox21 10K library (AID 1224842); conditions: PGC/ERR reporter cell line, luciferase ONE-Glo, 18 h; series mostly up to 92.4 µM; also: potency is read from the fitted curve at half-maximal effect; nearly all actives have a fitted effect of over 15% in size
# Summary of the method: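 Luminescence from One-Glo (30 min, room temperature) measured after PGC/ERR cells had 18 h at 37 C with pinned compound (23 nL in DMSO). Cells had been seeded at 2,000 per well and pre-incubated 6 h.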
# [5] = qHTS assay to identify small molecule agonists of the hypoxia (HIF-1) signaling pathway - cell viability counter screen (AID 1224844; calls by dose curve; also: potency is read from the fitted curve at half-maximal effect; nearly all actives have a fitted effect of over 50% in size); conditions: HRE-bla ME-180 viability, CellTiter-Glo luminescence, 17 h; series mostly up to 76.8 µM
# Summary of the method: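 Viability counter screen: HRE-bla ME-180 cells plated 5 hrs before compound addition, treated 17 hrs at 37C and 5% CO2, then CellTiter-Glo added after the FRET reporter read; luminescence after 30 min.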
# [6] = qHTS assay to identify small molecule agonists of the hypoxia (HIF-1) signaling pathway (AID 1224846; active = well fitted activation curve with a large enough effect in the signal ratio in the repeat runs, not every such curve was filed as active; inconclusive = weak or mixed curves; the % refers to the signal ratio; also: potency is read from the fitted curve at half-maximal effect); conditions: HRE-bla ME-180 cells, beta-lactamase ratio, 17 h; activation: at 76.8 µM (top of the series) unless noted
# Summary of the method: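 Agonist mode reporter screen. ME-180 cells stably expressing bla under HRE control received test compounds in DMSO for 17 hrs (37C, 5% CO2), and beta-lactamase activity was then detected with the CCF4-AM FRET substrate.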
# [7] = qHTS assay to identify small molecule agonists of H2AX - cell viability counter screen (AID 1224847; calls by dose curve; also: potency is read from the fitted curve at half-maximal effect; nearly all actives have a fitted effect of over 30% in size); conditions: CHO-K1 viability, CellTiter-Glo luminescence, 3 h; series mostly up to 154 µM
# Summary of the method: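 CHO-K1 wt, 1000 cells/well, o/n 37C; cpds 15 conc, 3 h 37C, 0.76% DMSO; CellTiter-Glo, 30 min RT, luminescence.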
# [8] = qHTS RealTime-Glo MT Cell Viability Assay in HEK293 cells - 32 hour (AID 1224868); conditions: RealTime-Glo luminescence; series mostly up to 76.8 µM; also: potency is read from the fitted curve at half-maximal effect; nearly all actives have a fitted effect of over 50% in size
# Summary of the method: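 Quantitative high-throughput screen of the Tox21 10K library in HEK293: cells and RealTime-Glo reagents plated together, compound added at 5 h, luminescence monitored through 40 h at 37 C.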
# [9] = biological target: Luciferin 4-monooxygenase (Photinus pyralis) (UniProt P08659); test: qHTS assay to identify small molecule inhibitors of firefly luciferase (AID 1224835); also: potency is read from the fitted curve at half-maximal effect; nearly all actives have a fitted effect of over 25% in size; conditions: purified P. pyralis luciferase, luminescence inhibition; series mostly up to 115 µM
# UniProt P08659, sequence (P08659 whole entry, looked up): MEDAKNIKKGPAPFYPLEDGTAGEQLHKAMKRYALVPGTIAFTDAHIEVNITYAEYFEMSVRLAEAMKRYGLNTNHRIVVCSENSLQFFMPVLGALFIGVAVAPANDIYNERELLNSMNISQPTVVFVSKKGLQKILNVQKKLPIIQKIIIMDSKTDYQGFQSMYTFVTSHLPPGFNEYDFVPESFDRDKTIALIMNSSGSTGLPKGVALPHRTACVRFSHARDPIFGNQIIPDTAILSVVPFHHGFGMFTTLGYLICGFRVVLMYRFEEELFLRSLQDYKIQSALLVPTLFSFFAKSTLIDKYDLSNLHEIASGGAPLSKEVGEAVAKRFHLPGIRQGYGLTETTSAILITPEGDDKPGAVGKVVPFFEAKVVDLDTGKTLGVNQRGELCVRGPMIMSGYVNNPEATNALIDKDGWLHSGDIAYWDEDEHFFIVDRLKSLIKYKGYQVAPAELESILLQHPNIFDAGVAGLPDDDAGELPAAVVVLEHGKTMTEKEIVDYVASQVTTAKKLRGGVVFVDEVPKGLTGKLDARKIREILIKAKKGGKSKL
# Summary of the method: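 Inhibition of purified Photinus luciferase is measured by luminescence. Substrate levels (D-luciferin, ATP) sit at their KM values. Each compound is tested in a concentration series.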
# [10] = qHTS assay to identify small molecule antagonists of the estrogen related receptor signaling pathway with the pleiotropic PPARgamma coactivator (PGC) from Tox21 10K library (AID 1224841; call rule not given here; also: actives are mostly falling curves and most rising ones were filed inactive; nearly all actives have a fitted effect of over 50% in size; also: potency is read from the fitted curve at half-maximal effect); conditions: PGC/ERR reporter cell line, ONE-Glo luciferase, 18 h; series mostly up to 92.4 µM
# Summary of the method: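 Cells stably carrying the PGC/ERR reporter, seeded at 2,000 per well, received pin-transferred compounds 6 h post-plating. Exposure lasted 18 h at 37 C. Signal: One-Glo luminescence.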
# [11] = qHTS assay to identify small molecule antagonists of the estrogen related receptor (ERR) signaling pathway from Tox21 library (AID 1224848); conditions: ERR reporter cell line, luciferase antagonist mode, 18 h; series mostly up to 92.4 µM; also: nearly all actives have a fitted effect of over 50% in size; also: potency is read from the fitted curve at half-maximal effect
# Summary of the method: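 Luciferase luminescence (ONE-Glo, 30 min room temperature) was the read-out. Cells of the NTP-supplied ERR line, 2,000 per well, were given 6 h at 37 C before compound addition in DMSO and 18 h exposure at 37 C.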
# [12] = qHTS assay to identify small molecule antagonists of the constitutive androstane receptor (CAR) signaling pathway - cell viability counter screen (AID 1224837); conditions: HepG2-CYP2B6-hCAR viability, CellTiter-Fluor, 23 h, co-treated with 50 nM CITCO; series mostly up to 92.4 µM; also: potency is read from the fitted curve at half-maximal effect; nearly all actives have a fitted effect of over 45% in size
# Summary of the method: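 Cells are seeded, rested 4 hr at 37 C/5% CO2, dosed with compound (15-point series) and 50 nM CITCO, incubated a further 23 hr, and then CellTiter-Fluor reagent is added before fluorescence is read. The line is HepG2 with stable hCAR and CYP2B6-2.2kb.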
# [13] = biological target: Nuclear receptor subfamily 1 group I member 3 (Homo sapiens) (UniProt Q14994); test: qHTS assay to identify small molecule antagonists of the constitutive androstane receptor (CAR) signaling pathway (AID 1224838); conditions: HepG2-CYP2B6-hCAR luciferase, CITCO-stimulated, 24 h; series mostly up to 92.4 µM;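 also: HepG2 cells stably expressing hCAR with CYP2B6 luciferase reporter stimulated by CITCO; % is scaled to controls: 0 for no effect and ±100 for the full control effect; nearly all actives have a fitted effect of over 40% in size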
# UniProt Q14994, sequence (Q14994 whole entry, looked up): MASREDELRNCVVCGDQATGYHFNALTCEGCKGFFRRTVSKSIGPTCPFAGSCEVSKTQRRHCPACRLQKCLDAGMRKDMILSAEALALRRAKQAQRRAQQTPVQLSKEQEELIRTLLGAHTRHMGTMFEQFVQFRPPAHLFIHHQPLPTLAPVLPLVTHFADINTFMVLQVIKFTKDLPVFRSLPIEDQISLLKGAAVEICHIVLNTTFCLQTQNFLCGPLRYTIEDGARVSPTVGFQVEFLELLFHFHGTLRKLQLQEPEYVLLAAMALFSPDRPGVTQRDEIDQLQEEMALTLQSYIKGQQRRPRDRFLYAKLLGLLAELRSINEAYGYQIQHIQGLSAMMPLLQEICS
# Summary of the method: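 Luminescence from a CYP2B6-2.2kb promoter reporter in hCAR-expressing HepG2 cells reflects CAR signaling. Cells received compounds at 15 concentrations and 50 nM CITCO (final), then incubated 24 h at 37 C/5% CO2.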
# [14] = biological target: Thyrotropin receptor (Homo sapiens) (UniProt P16473); test: qHTS assay to identify small molecule agonists of the thyroid stimulating hormone receptor (TSHR) signaling pathway (AID 1224843; calls by dose curve; also: potency is read from the fitted curve at half-maximal effect; nearly all actives have a fitted effect of over 45% in size); conditions: TSHR-HEK293 cells, cAMP HTRF, agonist mode, 30 min; activation: at 92.4 µM (top of the series) unless noted
# UniProt P16473, sequence (P16473 whole entry, looked up): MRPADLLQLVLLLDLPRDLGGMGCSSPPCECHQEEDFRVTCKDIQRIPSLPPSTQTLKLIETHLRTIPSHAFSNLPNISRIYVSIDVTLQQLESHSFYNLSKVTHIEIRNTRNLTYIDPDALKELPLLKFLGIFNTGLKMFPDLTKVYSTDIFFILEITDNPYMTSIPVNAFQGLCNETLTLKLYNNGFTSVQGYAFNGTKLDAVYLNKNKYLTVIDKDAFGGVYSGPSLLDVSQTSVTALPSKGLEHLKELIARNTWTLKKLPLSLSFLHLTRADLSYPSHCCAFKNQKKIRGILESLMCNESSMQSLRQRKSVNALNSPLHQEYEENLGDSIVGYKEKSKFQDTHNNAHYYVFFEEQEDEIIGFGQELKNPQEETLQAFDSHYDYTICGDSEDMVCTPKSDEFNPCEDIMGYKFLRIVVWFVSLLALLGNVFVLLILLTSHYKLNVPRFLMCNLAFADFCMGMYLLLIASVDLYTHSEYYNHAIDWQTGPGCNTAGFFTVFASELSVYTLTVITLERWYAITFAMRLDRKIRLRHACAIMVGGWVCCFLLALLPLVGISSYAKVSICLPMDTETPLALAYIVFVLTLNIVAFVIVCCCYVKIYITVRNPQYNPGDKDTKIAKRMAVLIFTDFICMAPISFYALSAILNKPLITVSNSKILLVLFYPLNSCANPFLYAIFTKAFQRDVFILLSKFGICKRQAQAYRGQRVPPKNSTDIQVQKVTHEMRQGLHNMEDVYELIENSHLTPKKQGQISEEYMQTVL
# Summary of the method: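 Agonist activity read as cAMP rise via d2/cryptate HTRF competition, 1 h room-temperature detection, in HEK293 cells expressing TSHR. Fifteen-point titrations, each run in triplicate, with a 30 min room-temperature incubation beforehand.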
# [15] = biological target: Nuclear receptor subfamily 1 group I member 3 (Homo sapiens) (UniProt Q14994); test: qHTS assay to identify small molecule agonists of the constitutive androstane receptor (CAR) signaling pathway (AID 1224839); conditions: HepG2 hCAR CYP2B6-luciferase, agonist mode, 24 h; series mostly up to 92.4 µM; also: nearly all actives have a fitted effect of over 15% in size; also: potency is read from the fitted curve at half-maximal effect;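 as to activation: HepG2 cells stably carrying human CAR and a CYP2B6 luciferase reporter; % is scaled to controls: 0 for no effect and ±100 for the full control effect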
# Summary of the method: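 Luminescence read-out (ONE-Glo, 30 min, room temperature) from double-stable HepG2-CYP2B6-hCAR cells exposed 24 h to 15-point compound series in presence of 0.75 uM PK11195 final.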
# [16] = qHTS assay to identify small molecule agonists of H2AX (AID 1224845; active = well fitted activation curve with a large enough effect in the signal ratio in the repeat runs, not every such curve was filed as active; inconclusive = weak or mixed curves; the % refers to the signal ratio; also: potency is read from the fitted curve at half-maximal effect; as to activation (H2AX phosphorylation): % is scaled to controls: 0 for no effect and ±100 for the full control effect); conditions: CHO-K1 phospho-H2AX Ser139 HTRF, 3 h; activation (H2AX phosphorylation): at 154 µM (top of the series) unless noted
# Summary of the method: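 Phospho-H2AX Ser139 measured by HTRF (ex 320 nm; em 665 and 620 nm) after 24 hr antibody incubation. Compounds, 15 concentrations, 0.76% DMSO, were applied to CHO-K1 cells for 3hr at 37C before lysis.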
# [17] = qHTS RealTime-Glo MT Cell Viability Assay in HepG2 cells - 24 hour (AID 1224867); conditions: RealTime-Glo luminescence; series mostly up to 76.8 µM
# Summary of the method: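 Compound treatment began 5 h after plating HepG2 cells (600/well) with NanoLuc luciferase and prosubstrate. Plates stayed at 37 C for 40 h; luminescence was captured at six time points, 0 h through 40 h.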
# [18] = A CellTox Green Cytotoxicity Assay to monitor cytotoxicity in HEK293 cells - 0 hour (AID 1224869); conditions: CellTox Green fluorescence; series mostly up to 76.8 µM
# Summary of the method: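 Dead-cell fluorescence measured kinetically: asymmetric cyanine dye, HEK293, 600 cells/well, 5 h settle, 23 nL cpd/DMSO, 37 C, reads 0–40 h every 8 h.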
# Tags tell the direction and shape of the fitted curve or compound fluorescence and quenching.
structure (smiles),measurement,setting,value
COc1ccc(OC)c(N=Nc2c(O)ccc3ccccc23)c1,Potency,[1],active: 24.3 µM
same,Potency,[2],active: 30.6 µM
same,Potency,[3],"inconclusive: 21.7 µM [cytotoxic, partial curve]"
same,Potency,[4],inconclusive: 68.6 µM [activator]
same,Potency,[5],active: 38.9 µM
same,Potency,[6],"inconclusive: 49 µM [falling, partial curve]"
same,Potency,[7],active: 40.1 µM
same,Potency,[8],"inconclusive: 34.7 µM [cytotoxic, partial curve]"
COc1ccc(C(=O)Nc2ccccc2)cc1[N+](=O)[O-],Potency,[1],"inconclusive: 54.9 µM [cytotoxic, partial curve]"
same,Potency,[9],"inconclusive: 32 µM [inhibitor, full curve]"
same,Potency,[7],"inconclusive: 128 µM [cytotoxic, partial curve, poor fit]"
CC(C)OC(=O)C(C)N(C(=O)c1ccccc1)c1ccc(F)c(Cl)c1 (stereo unspecified),Potency,[1],"inconclusive: 30.6 µM [cytotoxic, partial curve]"
same,Potency,[2],"inconclusive: 68.6 µM [cytotoxic, single point]"
same,Potency,[3],"inconclusive: 27.3 µM [cytotoxic, partial curve]"
same,Potency,[10],active: 21.7 µM
Cc1ccccc1C(=O)Nc1ccc(C(=O)N2CCCC(O)c3cc(Cl)ccc32)c(C)c1 (stereo unspecified),Potency,[1],"inconclusive: 33.5 µM [cytotoxic, partial curve, poor fit]"
same,Potency,[9],"inconclusive: 30.9 µM [inhibitor, partial curve]"
same,Potency,[11],"inconclusive: 29.8 µM [inhibitor, partial curve]"
same,Potency,[8],"inconclusive: 21.3 µM [cytotoxic, partial curve]"
COc1ccc(CN(CCN(C)C)c2ccccn2)cc1,Potency,[1],"inconclusive: 76.2 µM [cytotoxic, single point] and inconclusive: 50.2 µM [cytotoxic, partial curve] and inconclusive: 3.35 µM [cytotoxic, single point]"
same,Potency,[12],inconclusive: 63.2 µM [cytotoxic]
CCCCCCCCCCCCCCCCOS(=O)(=O)O,Potency,[1],"inconclusive: 26.6 µM [cytotoxic, single point]"
same,Potency,[13],inactive
same,Potency,[14],"inconclusive: 33.5 µM [inhibitor, single point]"
same,Potency,[5],"inconclusive: 23.9 µM [cytotoxic, partial curve, poor fit]"
same,Potency,[11],inconclusive: 26.6 µM [inhibitor]
O=C1CCN(c2ccccc2)N1,Potency,[1],"inconclusive: 17.3 µM [cytotoxic, full curve]"
same,Potency,[15],inactive
same,Potency,[14],"inconclusive: 27.4 µM [activator, partial curve, poor fit]"
same,activation (H2AX phosphorylation),[16],inconclusive: 7.86%
CC1=C(C)C(=O)C(CCCCC#CCCCC#CCO)=C(C)C1=O,Potency,[1],active: 23.7 µM
same,Potency,[15],inconclusive: 29.8 µM [activator]
same,Potency,[3],inactive
same,Potency,[10],"inconclusive: 26.6 µM [falling, partial curve]"
same,activation (H2AX phosphorylation),[16],inconclusive: 11.2% [at 70.9 µM]
same,Potency,[17],"inconclusive: 21.3 µM [falling, partial curve]"
same,Potency,[8],active: 0.674 µM
Cc1ccc(N=Nc2c(O)ccc3ccccc23)c(C)c1,Potency,[1],"inconclusive: 11.9 µM [cytotoxic, partial curve]"
same,Potency,[12],"inconclusive: 9.44 µM [cytotoxic, partial curve]"
same,Potency,[3],inconclusive: 11.9 µM [cytotoxic]
same,Potency,[5],active: 21.3 µM
CCN(CC)CCNc1ccc(CNC=O)c2sc3ccc(OC)cc3c(=O)c12,Potency,[1],active: 7.7 µM
same,Potency,[12],active: 8.63 µM
same,Potency,[4],"inconclusive: 77 µM [activator, single point]"
Cc1ncc([N+](=O)[O-])n1C,Potency,[1],inactive
same,Potency,[15],inactive
same,Potency,[10],inactive
same,Potency,[11],inactive
same,Potency,[18],"inconclusive: 54.1 µM [activator, single point]"
Oc1ccc(Nc2ccccc2)cc1,Potency,[1],"inconclusive: 24.3 µM [cytotoxic, full curve]"
same,Potency,[15],"inconclusive: 68.6 µM [activator, partial curve, poor fit]"
same,Potency,[3],"inconclusive: 54.5 µM [cytotoxic, partial curve]"
same,Potency,[5],"inconclusive: 43.6 µM [cytotoxic, partial curve, poor fit]"
same,Potency,[16],inconclusive: 50.5 µM [partial curve]
same,Potency,[17],"inconclusive: 49 µM [falling, partial curve, poor fit]"
same,Potency,[8],active: 21.9 µM
CCCSc1ccc2nc(NC(=O)OC)[nH]c2c1,Potency,[1],"inconclusive: 0.75 µM [cytotoxic, full curve]"
same,Potency,[15],"inconclusive: 6.86 µM [activator, partial curve] and active: 9.44 µM"
same,Potency,[5],"inconclusive: 2.13 µM [rising, full curve]"
same,Potency,[16],"inconclusive: 56.6 µM [fluorescent, partial curve] and inconclusive: 39.1 µM [fluorescent, partial curve]"
same,Potency,[8],"inconclusive: 309 nM [cytotoxic, full curve] and inconclusive: 425 nM [cytotoxic, full curve]"
